No constants are given. Whether binding was seen depends on the method and setting. Binding seen in cells or lysates may run through a third protein.
Biological target: NFκB transcription factor p65/RelA (human (endogenous in resting CD4+ T cells and PHA-treated T cells from PBMC)), Q04206
Experiment: co-IP
Conditions: remark: other sources report otherwise

B1: IκBα, P25963 1-317 (protein)
chain: MFQAAERPQEWAMEGPRDGLKKERLLDDRHDSGLDSMKDEEYEQMVKELQEIRLEPQEVPRGSEPWKQQLTEDGDSFLHLAIIHEEKALTMEVIRQVKGDLAFLNFQNNLQQTPLHLAVITNQPEIAEALLGAGCDPELRDFRGNTPLHLACEQGCLASVGVLTQSCTTPHLHSILKATNYNGHTCLHLASIHGYLGIVELLVSLGADVNAQEPCNGRTALHLAVDLQNPDLVSLLLKCGADVNRVTYQGYSPYQLTWGRPSTRIQQQLGQLTLENLQMLPESEDEESYDTESEFTEFTEDELPYDDCVFGGQRLTL
**Q.** Which binding does the source give for B1 here?
**A.** no binding

— publication PMC11999137
